Measurements as given in article PMC8287938, “Identification and structural analysis of the Schizosaccharomyces pombe SMN complex” (Nucleic Acids Research, 2021).
No constants are given. Whether binding was seen depends on the method and setting. For part of these data: In cells and extracts the contact can be indirect. Some entries that bind do so weakly or less than the wild type. For part of these data: Tags and fused reporters may be left off the sequences shown. Values belong to the molecule of their own block, whether it stands above or below them.

Protein sequences, listed by entry. Tags and fused reporters are not part of them. Lines headed by an entry give the natural chain unless they say otherwise; changes in a name come on top. Chains listed by the source or under a name are the forms on record and can include a tag or linker. Residues count along the entry.
MBP-Hs-YG-domain^252–284 (wt) (Q16637, residues 252-284): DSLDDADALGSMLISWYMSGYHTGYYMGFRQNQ
MBP-Hs-YG-domain^252–284 H273R (Q16637, form named): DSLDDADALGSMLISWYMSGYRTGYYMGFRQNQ
MBP-Hs-YG-domain^252–284 M263R (Q16637, form named): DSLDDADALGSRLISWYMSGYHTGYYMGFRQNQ
MBP-Hs-YG-domain^252–284 M263T (Q16637, form named): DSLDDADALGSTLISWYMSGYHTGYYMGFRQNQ
MBP-Hs-YG-domain^252–284 S266P (Q16637, form named): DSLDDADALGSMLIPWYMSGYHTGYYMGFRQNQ
MBP-Hs-YG-domain^252–284 T274I (Q16637, form named): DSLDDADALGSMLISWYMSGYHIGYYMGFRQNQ
MBP-Hs-YG-domain^252–284 Y272C (Q16637, form named): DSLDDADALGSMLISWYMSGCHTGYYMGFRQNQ
UniProt Q8WXD5, residues 1-92: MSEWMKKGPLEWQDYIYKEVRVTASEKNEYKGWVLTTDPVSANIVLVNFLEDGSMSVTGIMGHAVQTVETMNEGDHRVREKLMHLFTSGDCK

Tests used:
HsG7^46–131 = target: T1, HsG7^46–131 (human, UniProt Q9H840 46-131); assay: crystal structure; HsG6 1–92/HsG7 46–131/HsG8 190–230, 1.52 Å, PDB 7BBL; both purified
T1 construct: human Gemin7, residues 46-131 (residues 47-131 in the model); also called human Gemin7 46-131; His6-HsG7^46–131; source: E. coli BL21(DE3), co-expressed with HsG6 1-92, purified
T1 sequence (looked up): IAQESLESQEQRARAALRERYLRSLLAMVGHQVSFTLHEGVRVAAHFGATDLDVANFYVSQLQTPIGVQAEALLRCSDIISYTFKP

His6-SpG2 (S. pombe) = target: T2, His6-SpG2 (S. pombe) (UniProt P0CU08); assay: pull-down; co-expression in E. coli from polycistronic constructs, Ni-NTA purification through the His6-tagged subunit, SDS-PAGE
T2 sequence: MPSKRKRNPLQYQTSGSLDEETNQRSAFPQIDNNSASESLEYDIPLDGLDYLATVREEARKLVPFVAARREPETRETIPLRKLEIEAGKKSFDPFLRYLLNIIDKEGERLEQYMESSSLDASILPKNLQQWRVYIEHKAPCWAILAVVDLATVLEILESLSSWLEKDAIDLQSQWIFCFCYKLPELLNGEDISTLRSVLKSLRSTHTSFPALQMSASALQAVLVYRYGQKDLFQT

[1] = target: T3, His6-SpG2^ΔN80 (S. pombe) (UniProt P0CU08); assay: as above
T3 sequence: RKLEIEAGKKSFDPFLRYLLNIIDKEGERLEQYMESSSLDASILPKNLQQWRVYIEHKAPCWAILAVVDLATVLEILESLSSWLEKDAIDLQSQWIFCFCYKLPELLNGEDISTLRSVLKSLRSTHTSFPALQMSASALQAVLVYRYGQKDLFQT

His6-SpSMN (S. pombe) = target: T4, His6-SpSMN (S. pombe) (UniProt Q09808); assay: as above
T4 sequence: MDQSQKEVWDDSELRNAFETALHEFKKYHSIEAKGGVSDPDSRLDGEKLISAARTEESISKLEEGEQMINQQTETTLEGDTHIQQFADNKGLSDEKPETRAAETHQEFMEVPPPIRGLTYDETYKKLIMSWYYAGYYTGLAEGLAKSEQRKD

[2] = target: MBP-Hs-YG-domain^252–284 (wt) (human) (UniProt Q16637); assay: pull-down; MBP fusion proteins immobilized on Amylose resin, in vitro translated [35S]-HsG8; HEPES pH 7.0, 150 mM NaCl, 2 mM DTT, 4°C, 3 h; wash with 300 mM NaCl; autoradiography; only the target purified
[3] = target: MBP-Hs-YG-domain^252–284 H273R (human) (UniProt Q16637); assay: as above
[4] = target: MBP-Hs-YG-domain^252–284 M263R (human) (UniProt Q16637); assay: as above
[5] = target: MBP-Hs-YG-domain^252–284 M263T (human) (UniProt Q16637); assay: as above
[6] = target: MBP-Hs-YG-domain^252–284 S266P (human) (UniProt Q16637); assay: as above
[7] = target: MBP-Hs-YG-domain^252–284 T274I (human) (UniProt Q16637); assay: as above
[8] = target: MBP-Hs-YG-domain^252–284 Y272C (human) (UniProt Q16637); assay: as above
[9] = target: T5, SpSMN (two-hybrid fusion) (S. pombe) (UniProt Q09808); assay: two-hybrid; pASΔΔ baits in CG1945 mated with pACT2st preys in Y187; growth on –Trp–Leu–His plates, 30°C, 3–5 days
T5 sequence: T4 sequence

binding (His6-SpG2 (S. pombe)): binds | binding [1]: binds
B1: SpSMN (untagged, E. coli) (protein, UniProt Q09808 1-152)
chain: T4 sequence

binding (His6-SpSMN (S. pombe)): binds
B2: SpG2 (untagged, E. coli) (protein, UniProt P0CU08 1-235)
chain: T2 sequence

More lines, now with the values behind:

Molecule: HsG6^1–92 (from UniProt Q8WXD5 1-92) (domain or fragment)
binding (HsG7^46–131): binds

B3: His6-HsG8 (full length), [35S]-labeled (protein, UniProt Q9NWZ8 1-242)
chain: MAAVKASTSKATRPWYSHPVYARYWQHYHQAMAWMQSHHNAYRKAVESCFNLPWYLPSALLPQSSYDNEAAYPQSFYDHHVAWQDYPCSSSHFRRSGQHPRYSSRIQASTKEDQALSKEEEMETESDAEVECDLSNMEITEELRQYFAETERHREERRRQQQLDAERLDSYVNADHDLYCNTRRSVEAPTERPGERRQAEMKRLYGDSAAKIQAMEAAVQLSFDKHCDRKQPKYWPVIPLKF
modifications: [35S]-methionine labeled
binding [2]: binds | binding [3]: no binding | binding [4]: binds | binding [5]: binds | binding [6]: no binding | binding [7]: binds | binding [8]: binds

B4: SpG2 (two-hybrid fusion) (protein, UniProt P0CU08 1-235)
chain: T2 sequence
binding [9]: binds
